# Results published in PubChem BioAssay (Tox21).
# Where “and” joins values, the source holds several entries; their conditions need not be identical. Equal values may be shown once. The inconclusive results got no clear call from the source; some entries with a clear call stand among them for comparison. For some assays here: Potencies beside an inconclusive call are fits to weak or partial responses and may not hold up. Calls of active or inactive are those of the source. Unless noted, the call rests on the fitted dose curve; in most records, active means well fitted curve in the direction sought with a large enough effect in the repeat runs; inconclusive means weak or mixed curves; inactive means no such curve, though single readings can be large; an effect the other way counts as inactive or inconclusive.
# Legend:
# [1] = qHTS assay for small molecule agonists of the p53 signaling pathway (AID 651631; calls by dose curve; further: nearly all actives have a fitted effect of over 15% in size; further: potency means the concentration at half of the fitted maximal effect; on activation: on the % scale 0 is the no-effect control and ±100 the full control effect); conditions: HCT-116 p53RE-bla reporter, beta-lactamase FRET ratio, 16 h; activation: at 73.3 µM (top of the series) unless noted
# Summary of the method: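 Read-out is beta-lactamase FRET fluorescence measured 2 h after substrate addition at room temperature, in HCT-116 cells with a p53 response element-driven reporter exposed to compounds for 16 h at 37 °C.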
# [2] = target: Glucocorticoid receptor (Homo sapiens) (UniProt P04150); assay: qHTS assay to identify small molecule agonists of the glucocorticoid receptor (GR) signaling pathway (AID 720691; active means well fitted activation curve with a large enough effect in the signal ratio in the repeat runs, not every such curve was filed as active; inconclusive means weak or mixed curves, or effect the other way; inactive means no such curve, though single readings can be large or run the other way; the % refers to the signal ratio; further: on the % scale 0 is the no-effect control and ±100 the full control effect); conditions: GR-bla HeLa, beta-lactamase reporter ratio, 18 h; activation: at 62.4 µM (top of the series) unless noted
# Summary of the method: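 Agonist-mode qHTS in HeLa cells stably expressing a glucocorticoid-response-element beta-lactamase reporter. Fluorescence intensity read with FRET substrate (2 h, room temperature) after 18 h compound treatment at 37 C.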
# [3] = target: Glucocorticoid receptor (Homo sapiens) (UniProt P04150); assay: qHTS assay to identify small molecule antagonists of the glucocorticoid receptor (GR) signaling pathway (AID 720692; active means well fitted inhibition curve with a large enough effect in the signal ratio in the repeat runs, not every such curve was filed as active; inconclusive means weak or mixed curves, or effect the other way; inactive means no such curve, though single readings can be large or run the other way; the % refers to the signal ratio; further: potency means the concentration at half of the fitted maximal effect); conditions: GR-bla HeLa, beta-lactamase FRET ratio, dexamethasone-stimulated, 18 h; activity change, negative = inhibition: at 58.5 µM (top of the series) unless noted
# Summary of the method: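 Inhibition of dexamethasone-driven (5 nM final) beta-lactamase expression was measured in GRE-reporter HeLa cells over 18 h at 37C. Fluorescence was read after 2 h with the B/G FRET substrate at room temperature.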
# [4] = qHTS assay for identifying genotoxic compounds that show differential cytotoxicity against isogenic chicken DT40 cell lines with known DNA damage response pathways - Rev3 mutant cell line (AID 743014); conditions: chicken DT40 Rev3-/- viability, CellTiter-Glo, 40 h; activity, negative = cytotoxicity: at 68.4 µM (top of the series) unless noted; further: nearly all actives have a fitted effect of over 55% in size; further: potency means the concentration at half of the fitted maximal effect; on activity, negative = cytotoxicity: on the % scale 0 is the no-effect control and ±100 the full control effect
# [5] = qHTS assay for small molecule disruptors of the mitochondrial membrane potential (AID 720635); conditions: HepG2 mitochondrial membrane potential, Mito-MPS dye ratio; ratio activity, negative = MMP loss: at 83.2 µM (top of the series) unless noted; further: potency means the concentration at half of the fitted maximal effect; on ratio activity, negative = MMP loss: on the % scale 0 is the no-effect control and ±100 the full control effect
# Summary of the method: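 Mitochondrial membrane potential tracked with Mito-MPS dye, red aggregates (ex 540/em 590 nm) against green monomers (ex 490/em 535 nm). Compound treatment 1 hr at 37C, dye 30 min in HepG2.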
# [6] = qHTS assay for identifying genotoxic compounds that show differential cytotoxicity against isogenic chicken DT40 cell lines with known DNA damage response pathways - wild type cell line (AID 743012); conditions: DT40 wild type chicken cells viability, CellTiter-Glo, 40 h; activity change, negative = cytotoxicity: at 68.4 µM (top of the series) unless noted; further: nearly all actives have a fitted effect of over 60% in size; further: potency means the concentration at half of the fitted maximal effect
# Summary of the method: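 Viability by ATP luminescence (CellTiter-Glo, 30 min RT) after 40 h compound treatment at 37 C/5% CO2, using 300 parental DNA repair-proficient DT40 cells per well.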
# [7] = qHTS assay for identifying genotoxic compounds that show differential cytotoxicity against isogenic chicken DT40 cell lines with known DNA damage response pathways - Rad54/Ku70 mutant cell line (AID 743015); conditions: DT40 Rad54/Ku70 mutant viability, CellTiter-Glo, 40 h; activity change, negative = cytotoxicity: at 66.8 µM (top of the series) unless noted; further: nearly all actives have a fitted effect of over 60% in size; further: potency means the concentration at half of the fitted maximal effect
# [8] = qHTS assay to identify small molecule antagonists of the glucocorticoid receptor (GR) signaling pathway - cell viability counter screen (AID 720693); conditions: GR-bla HeLa viability, CellTiter-Glo luminescence, 18 h, with 5 nM dexamethasone present; viability change, negative = cytotoxic: at 58.5 µM (top of the series) unless noted; further: potency means the concentration at half of the fitted maximal effect; nearly all actives have a fitted effect of over 55% in size
# Tags describe the fitted curve by direction and shape or compound fluorescence and quenching.
# UniProt P04150, sequence (P04150 whole entry, looked up): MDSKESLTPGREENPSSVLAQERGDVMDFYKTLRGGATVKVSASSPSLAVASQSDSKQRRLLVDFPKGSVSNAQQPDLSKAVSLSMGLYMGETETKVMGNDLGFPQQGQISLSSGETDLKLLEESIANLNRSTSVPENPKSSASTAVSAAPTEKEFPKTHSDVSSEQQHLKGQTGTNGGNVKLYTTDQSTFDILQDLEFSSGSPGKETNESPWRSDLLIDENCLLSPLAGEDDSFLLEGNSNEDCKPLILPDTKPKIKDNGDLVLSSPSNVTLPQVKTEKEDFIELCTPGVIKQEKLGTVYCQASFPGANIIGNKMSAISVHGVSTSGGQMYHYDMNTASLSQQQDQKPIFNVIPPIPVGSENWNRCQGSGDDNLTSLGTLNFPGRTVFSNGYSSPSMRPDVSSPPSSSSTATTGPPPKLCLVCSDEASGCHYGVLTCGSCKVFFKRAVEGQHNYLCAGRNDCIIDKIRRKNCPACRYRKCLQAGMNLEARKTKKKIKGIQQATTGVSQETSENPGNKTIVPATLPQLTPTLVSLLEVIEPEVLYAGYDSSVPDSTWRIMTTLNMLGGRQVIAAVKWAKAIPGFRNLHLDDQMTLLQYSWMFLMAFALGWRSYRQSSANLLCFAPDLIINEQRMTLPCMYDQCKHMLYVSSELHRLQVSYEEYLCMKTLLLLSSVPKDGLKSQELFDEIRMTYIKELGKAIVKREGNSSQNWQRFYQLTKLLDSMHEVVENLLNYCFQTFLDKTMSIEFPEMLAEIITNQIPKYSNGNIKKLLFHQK
smiles,measurement,setting,value
[CH3][Sn]([Cl])([Cl])[Cl],Potency,[1],inactive
same,Potency,[2],inactive
same,Potency,[3],"inconclusive: 8.71 µM [inhibitor, full curve]"
same,Potency,[4],inactive
C1CCC(NC2CCCCC2)CC1,Potency,[1],inactive
same,"ratio activity, negative = MMP loss",[5],inconclusive: 14.2%
same,Potency,[6],"inactive and inconclusive: 61.1 µM [cytotoxic, partial curve, poor fit]"
same,Potency,[4],"inactive and inconclusive: 28.3 µM [cytotoxic, partial curve] and inconclusive: 68.6 µM [cytotoxic, single point]"
same,Potency,[7],"inconclusive: 63.3 µM [cytotoxic, partial curve]"
O=C(NC(=O)c1c(F)cccc1F)Nc1cc(Cl)c(Oc2ncc(C(F)(F)F)cc2Cl)c(Cl)c1,Potency,[1],"inconclusive: 26.1 µM [activator, partial curve]"
same,Potency,[3],inconclusive: 10.5 µM [activator]
Nc1ccc(N=Nc2ccc(-c3ccc(N=Nc4c(S(=O)(=O)O)cc5cc(S(=O)(=O)O)c(N=Nc6ccccc6)c(O)c5c4N)cc3)cc2)c(N)c1,Potency,[1],inactive
same,"activity change, negative = inhibition",[3],inconclusive: 12.7%
same,Potency,[4],"inconclusive: 15.7 µM [cytotoxic, partial curve]"
COP(=S)(OC)Oc1cc(Cl)c(I)cc1Cl,Potency,[1],"inconclusive: 61.1 µM [activator, single point]"
same,Potency,[3],active: 24.5 µM
same,Potency,[6],inactive
same,Potency,[4],inactive
CN(C)c1ccc(N=Nc2ccccc2)cc1,Potency,[1],"inconclusive: 38.6 µM [cytotoxic, partial curve, poor fit]"
same,Potency,[5],"inconclusive: 77 µM [inhibitor, single point]"
same,Potency,[7],"inconclusive: 30.7 µM [cytotoxic, partial curve, poor fit]"
C=C(C#N)CCC#N,Potency,[1],"inconclusive: 2.17 µM [falling, single point]"
same,Potency,[5],"inconclusive: 30.6 µM [activator, single point]"
same,Potency,[6],inactive
same,Potency,[7],inactive
COP(N)(=O)SC (centres undefined),Potency,[1],inactive
same,Potency,[5],inactive
same,Potency,[6],"inconclusive: 13.5 µM [rising, single point]"
same,"activity change, negative = cytotoxicity",[7],inconclusive: 5.61%
O=S(=O)(O)C(F)(F)C(F)(F)C(F)(F)C(F)(F)F,Potency,[1],"inconclusive: 0.243 µM [activator, single point]"
same,Potency,[5],inconclusive: 64.8 µM [activator]
same,Potency,[6],"inconclusive: 11.5 µM [rising, full curve]"
same,Potency,[4],inconclusive: 72.7 µM [cytotoxic]
same,Potency,[7],"inconclusive: 9.16 µM [rising, full curve, poor fit]"
CCCCOC(=O)c1ccccc1C(=O)OCCCC,Potency,[1],inactive
same,"activity change, negative = inhibition",[3],inconclusive: -13.8% and inconclusive: -2.54%
same,Potency,[4],"inactive and inconclusive: 30.6 µM [cytotoxic, full curve]"
same,Potency,[7],"inconclusive: 21.7 µM [cytotoxic, full curve]"
COC(=O)C(C)Oc1ccc(Oc2ccc(Cl)cc2Cl)cc1 (centres undefined),Potency,[1],"inconclusive: 6.11 µM [rising, partial curve]"
same,"ratio activity, negative = MMP loss",[5],inconclusive: 30.9%
same,Potency,[6],"inconclusive: 68.6 µM [cytotoxic, single point]"
same,Potency,[4],"inconclusive: 68.6 µM [cytotoxic, single point]"
c1cc2ccc3cccc4ccc(c1)c2c34,Potency,[1],"inconclusive: 80.7 µM [activator, partial curve, poor fit]"
same,Potency,[3],"inconclusive: 9.13 µM [activator, full curve, poor fit]"
same,Potency,[8],"inconclusive: 5.76 µM [rising, single point]"
same,Potency,[4],inconclusive: 21.9 µM [cytotoxic]
same,Potency,[7],active: 67.9 µM
C=CCC1([C@H](C)CCC)C(=O)NC(=O)NC1=O,Potency,[1],inactive
same,Potency,[3],inactive
CCCCNP(N)(N)=S,Potency,[1],inactive
same,Potency,[3],"inconclusive: 61.6 µM [activator, single point]"
same,"activity change, negative = cytotoxicity",[6],inconclusive: 22.4%
same,Potency,[7],inactive
CO/N=C(/C(=O)OC)c1ccccc1COc1ccccc1C,Potency,[1],"inconclusive: 68.6 µM [activator, single point]"
same,Potency,[3],"inconclusive: 19.5 µM [activator, full curve]"
same,Potency,[8],"inconclusive: 34.7 µM [cytotoxic, partial curve]"
COc1cc(OC)nc(NC(=O)NS(=O)(=O)c2ncccc2OCC(F)(F)F)n1,Potency,[1],"inconclusive: 1.3 µM [falling, single point]"
same,Potency,[3],inactive
same,Potency,[6],inactive
